Results on 14 molecules are retold here after paper PMC12136788.

T1: UNK ZnF1-3 (human, UniProt Q9C0B0 31-174)
T1 sequence: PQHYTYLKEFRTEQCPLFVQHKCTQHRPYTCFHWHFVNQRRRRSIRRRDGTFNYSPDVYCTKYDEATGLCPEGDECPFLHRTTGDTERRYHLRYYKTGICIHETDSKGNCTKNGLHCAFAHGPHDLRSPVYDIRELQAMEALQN

B1: chr22:38884116:38884117:-_ENSG00000100201_ENST00000396821|hu_hu|FALSE|FALSE (ssRNA)
RNA: GGGAGUUCUACAGUCCGACGAUCAUAAUCCUCUGAGCUGUUUGGAUAGUCAUAGUUGAUCACAAACUUGACAUCUUCCACAUCUAGCCCACGGGAGGCUACAUCUGUAGCAAUAAGGAUGGGUGCCUUUCCAGAACGGAACUCCAACAGAGGAUUGAGCAUCA
B2: chr2:198351390:198351391:-_ENSG00000144381_ENST00000345042|hu_hu|hu_hu_hu_mus_False|28_58 (ssRNA)
RNA: GGGAGUUCUACAGUCCGACGAUCUCAUUCCCACCCUCCACAGAAAGGCUGCUUCUGAACUCUCAUGUGGUGACACAGCACUAAAAUCCUGAUGCUCACAGAACAGUAGUAAAAAUGCAGUGAUUUAAGUUGAAAGCAGGACACCAACAGAGGAUUGAGCAUCA
B3: chr3:176740097:176740098:-_ENSG00000177565_ENST00000430069|hu_mus|hu_hu_hu_mus_True|78_108 (ssRNA)
RNA: GGGAGUUCUACAGUCCGACGAUCUGUUUUUUACACCACAAAAGGAGGCACUUUCAGUAUCUGUAAAAGGUGUUUAGUCCUAAAACAUACUCACCUAGAGGAUAACUCAGGAAAACAAUCUGUUACACUCUAAGACCUACUCCACAACAGAGGAUUGAGCAUCA
B4: chr4:57314706:57314707:+_ENSG00000128050_ENST00000264221|hu_mus|hu_hu_hu_mus_True|18_18 (ssRNA)
RNA: GGGAGUUCUACAGUCCGACGAUCCAGAAUUUCAAAAAUAGCUUGUGUGGCAUGACUCAUGAUGUCCACUUCAGUCUGCCCUAUAACAAGGCCAGCAAAACAGAAUUUUGCAGCAAUCAGCUGUUCCUCAGACCACUGUGGAUCCAACAGAGGAUUGAGCAUCA
B5: chr11:77336104:77336105:-_ENSG00000074201_ENST00000525064|hu_mus|FALSE|FALSE (ssRNA)
RNA: GGGAGUUCUACAGUCCGACGAUCCUCACACAUUGCUGUGAACAUCGCCUCCAAUGCUGACUUAUCACUGGGCACAAAUCGAAAUUCAGAAAUGGGUUCAACAUCAUCAUUGUCUUCCUCAUCUUCAUCAGAGAGAGGUUCUUUCAACAGAGGAUUGAGCAUCA
B6: chrX:69798090:69798091:-_ENSMUSG00000031343_ENSMUST00000055966|mus_mus|mus_mus_mus_hu_False|18_48 (ssRNA)
RNA: GGGAGUUCUACAGUCCGACGAUCAAGUCCCCGGGUUCUUGUCGUCUUGAUUCCCCUUGACCAGUGGUUCCAGGGAGAAUAUUAAUCAGGAGAAGAAUCCCAAGGCUGGUCAUGUAAAAGUGCCACAUUUGUGUGAUUAUCAUCCAACAGAGGAUUGAGCAUCA
B7: chrX:153670519:153670520:+_ENSG00000203879_ENST00000447750|hu_hu|FALSE|FALSE (ssRNA)
RNA: GGGAGUUCUACAGUCCGACGAUCAGCCGGCUCCACCUCCUUUUCAGGGUCCGUGGUCUCCACAGUAGUGCUGGCAAUAGCUAUGUACUUGCCCUGGGCCGCCACGUUGUGUGCAUAGGAGAUCAUGCACACGUAGAUGUCUGACAACAGAGGAUUGAGCAUCA
B8: chr2:25961539:25961540:-_ENSG00000143970_ENST00000336112|hu_hu|motif|central (ssRNA)
RNA: GGGAGUUCUACAGUCCGACGAUCCACUCCUCACCCCCAUUAUAGCAAAUCACUUCACCAGAGAGUUAUUUAUGGCUCUCGGAGGUGGAGAAAGGCAAUAAUAAACAACAGAAUGUUAACUGUCAGGUCAUUAAUAUGUAUGACCAACAGAGGAUUGAGCAUCA
B9: chr11:10819154:10819155:-_ENSG00000110321_ENST00000525681|hu_hu|FALSE|FALSE (ssRNA)
RNA: GGGAGUUCUACAGUCCGACGAUCCUUAUGAUGUAAUUAUUGCAUGCUGCUAAUAUACUAUCUAAACAUUAAAGAUACUCCUAAAAUAUUUGAUGGUAGACUAUGAUUAAGACAUUACACUACAAAAAAACCUUAUGCAGAAGGCAACAGAGGAUUGAGCAUCA
B10: chr3:131208901:131208902:-_ENSG00000114686_ENST00000264995|hu_mus|FALSE|FALSE (ssRNA)
RNA: GGGAGUUCUACAGUCCGACGAUCCUGUCACAUGAAAGAUUUUAUGUAUCUGUUUUGGUGGCAGUCCAAGAUCUCGGUAAAAUUCCAAUCUAGAGUCAGGUUUAUAGAAGCGUGACACGGUUUUCCCGCCCACUGUCAGGGCUGCAACAGAGGAUUGAGCAUCA
B11: chr11:20128097:20128098:-_ENSMUSG00000044066_ENSMUST00000050611|mus_hu|motif|central (ssRNA)
RNA: GGGAGUUCUACAGUCCGACGAUCCCAACUCUAGGUUUUCAAGAAUGUUUUACAUACAGGUUUAUAAUUGACAAUUAUUUGCGGGAGUGGUUUUUCCCUUUUAAAGUCUCAGUGUGUAUGGAACUAAGAUGAUUAAUAUGGCAACAACAGAGGAUUGAGCAUCA
B12: chr17:88398918:88398919:-_ENSMUSG00000005371_ENSMUST00000130379|mus_hu|FALSE|FALSE (ssRNA)
RNA: GGGAGUUCUACAGUCCGACGAUCAUGAAUUUUGUUAUGCCGAACAAUUGGACAACUGUUUGUCCUAAUUUGAAUUCCUGCUAAUGCAUUGCCAUAAAUGUCAUUUCCUUCAAUAAGGCCUCGUCCAUCACCAAAGAUGUAAACCAACAGAGGAUUGAGCAUCA
B13: 144007290_144007410_2102_3pUTR_ENSMUSG00000029587_ENSMUST00000032591|mouse|control|control (ssRNA)
RNA: GGGAGUUCUACAGUCCGACGAUCGAAGGCUUUCCCACACUCGUUACACUCGAAGGGCUUCUCUCCCGAGUGGAUCCUGUGAUGGAUAGUGAGAUAAGACAUCUGGGAGAAGCAUUUCCCACACUCGUAACACUCGUAGGCUUUCAACAGAGGAUUGAGCAUCA
B14: 31378824_31380206_791_CDS_ENSMUSG00000021957_ENSMUST00000022529|mouse|control|control (ssRNA)
RNA: GGGAGUUCUACAGUCCGACGAUCUGUUGGUUGGUGCUUGGCCUGACCAAAGGCCUUGCACAGCUCCUCCACGCUGUGUCCGUCCACGAUGAUGGUGUGCCAGCCAAAGGCCUCACAGCGCUUCUGGUAGAUGUCCACCUGGUGCAACAGAGGAUUGAGCAUCA

Some of the results follow.

This assay deals with T1, UNK ZnF1-3. Kind of assay: nsRBNS (natural sequence RNA bind-n-seq); RBNS binding buffer (assumed for nsRBNS): 25 mM Tris pH 7.5, 150 mM KCl, 3 mM MgCl2, 0.01% Triton X-100, 500 ug/ml BSA, 20 U/ml SUPERase-In, 4 C; UNK is unkempt and MSI1 is Musashi-1; names of the RNAs are library labels; protein concentration not given here; high values mean tight binding.
For B1, the binding signal was 0.625 enrichment R. The figure for B2 is 1.21 enrichment R; for B3 it is 0.907 enrichment R; for B4 it is 1.05 enrichment R. Turning to B5, the binding signal turned out to be 1.07 enrichment R.

In the case of B6, the binding signal stood at 0.678 enrichment R.

Molecule B7 registered a binding signal of 1.11 enrichment R. The figure for B8 is 1.2 enrichment R. The figure for B9 is 1.02 enrichment R; for B10 it is 0.9 enrichment R; for B11 it is 1.02 enrichment R.

The molecule B12 registered a binding signal of 0.661 enrichment R. Next, B13: 0.911 enrichment R. The figure for B14 is 0.34 enrichment R.
